# Data: the supplement of paper PMC3334620
# The full ranking holds about 33,000 sequences; the median of “E-score (-0.5 to 0.5)” is about -0.043, and the highest 2% start at about 0.37. The list shows a part of the results.
# Target: T1, Upc2 (UniProt Q12151)
# T1 sequence: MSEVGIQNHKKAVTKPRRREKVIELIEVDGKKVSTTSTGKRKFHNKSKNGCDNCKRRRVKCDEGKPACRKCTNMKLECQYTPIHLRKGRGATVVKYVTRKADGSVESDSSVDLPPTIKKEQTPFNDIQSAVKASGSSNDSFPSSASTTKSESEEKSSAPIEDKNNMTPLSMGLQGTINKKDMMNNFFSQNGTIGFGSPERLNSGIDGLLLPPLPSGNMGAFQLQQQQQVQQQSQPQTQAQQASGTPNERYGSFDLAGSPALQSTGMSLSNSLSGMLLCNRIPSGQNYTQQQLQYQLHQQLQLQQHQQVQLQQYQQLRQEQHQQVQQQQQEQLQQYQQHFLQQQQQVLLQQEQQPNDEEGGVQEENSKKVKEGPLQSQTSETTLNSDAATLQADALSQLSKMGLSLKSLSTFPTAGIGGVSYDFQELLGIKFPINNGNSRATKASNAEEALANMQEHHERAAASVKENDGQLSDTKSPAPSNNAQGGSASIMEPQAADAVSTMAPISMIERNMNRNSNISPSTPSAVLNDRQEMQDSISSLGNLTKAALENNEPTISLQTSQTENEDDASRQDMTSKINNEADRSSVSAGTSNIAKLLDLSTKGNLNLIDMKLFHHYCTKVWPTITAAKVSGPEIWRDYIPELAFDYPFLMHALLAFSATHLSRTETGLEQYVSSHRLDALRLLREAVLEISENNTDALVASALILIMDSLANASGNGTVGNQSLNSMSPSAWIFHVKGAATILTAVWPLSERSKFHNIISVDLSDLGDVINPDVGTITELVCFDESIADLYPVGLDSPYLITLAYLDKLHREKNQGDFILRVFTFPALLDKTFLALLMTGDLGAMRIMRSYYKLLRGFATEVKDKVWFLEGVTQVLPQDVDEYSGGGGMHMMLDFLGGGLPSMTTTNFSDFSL
# Assay: PBM E-score (8-mer binding enrichment) (E-score (-0.5 to 0.5)); higher = stronger / more preferred TF binding; most listed sequences are background and not binding sites
# Settings: protein concentration: 200 nM; construct: GST-full length
# Method: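 Universal 'all 10-mer' protein binding microarrays (Agilent AMADID 015681) probed with GST-tagged S. cerevisiae TFs (full-length or DBD) made by in vitro transcription/translation (PURExpress), about 100-200 nM. Bound TF was detected with fluorescent anti-GST. Each ungapped 8-mer (which stands for itself and its reverse complement) is scored by the PBM enrichment score (E-score), a modified Wilcoxon-Mann-Whitney statistic from -0.5 to +0.5, computed with the Universal PBM Analysis Suite. Scale: above 0.35 generally sequence-specific binding.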
row,Sequence,PBM E-score
1,TACCTCTA,-0.0863
2,CTCCGAGA,-0.112
3,ACGACGGA,0.37
4,CAGGGAGA,-0.19
5,GGAAACTA,-0.177
6,ATTTCGCG,0.124
7,AACTCTGC,-0.237
8,GTTCATTA,0.111
9,GTTTAGAA,0.313
10,CAGTCTTA,0.0205
11,GGCCCGCC,-0.126
12,GAAAATAA,0.0199
13,CATTGCTC,-0.0125
14,ACCAGGTG,-0.172
15,GAGACCCA,-0.151
16,AACTAAGC,0.0896
17,GAAAACTC,-0.114
18,ATTCGTTC,0.428
19,ATCTGAGC,0.0686
20,CTGAGATC,-0.189
21,AGAAGGAC,-0.223
22,AGAAGGTA,-0.0265
23,AGTTGAGC,-0.0376
24,CTGGCGAA,-0.174
25,CCACAGGG,-0.144

row,Sequence,PBM E-score
1,AAGTCGAG,-0.135
2,AAAATGCT,-0.0957
3,ATCAGTGA,-0.182
4,GGAGTTAA,-0.163
5,CGATGTCC,0.17
6,CGTGGTCC,-0.104
7,CCTATGAC,-0.0458
8,CACTGTAA,0.0592
9,CTGACACA,-0.319
10,ATGTTCAG,-0.193
11,ATAAGAAG,0.197
12,ACAAGAGT,-0.0633
13,GAGGGGGC,-0.169
14,ATACGCCC,0.279
15,CATTACTA,0.00651
16,AGGTTCTA,-0.0689
17,ATCCACGA,-0.0435
18,CAAGCAGC,-0.143
19,ACGGTCTA,0.174
20,ACGTATTG,0.209
21,GCACGGAC,-0.0287
22,TGCTTACA,-0.0544
23,CGCGTCTA,0.0391
24,AGCAACAG,-0.145
25,GCTCCGGA,0.0904

row,Sequence,PBM E-score
1,AGGATCGG,-0.00417
2,AGACCCGC,0.0249
3,GATCAGCA,-0.0232
4,TAAATCAA,0.132
5,AGACCCCA,-0.148
6,ACCGGAGG,-0.186
7,ATGAGACG,-0.0739
8,TGAGCCCA,-0.0483
9,ACAGAGGA,-0.0314
10,ACGGATCG,0.272
11,CATATTGG,0.0165
12,CGATAGAA,0.157
13,CTTGGCGC,-0.163
14,GAAATCAA,-0.0817
15,CAGTTCGC,0.0573
16,AATAAAGC,0.0828
17,AAATAGTC,-0.0335
18,GAGAAGGC,-0.224
19,CGAGGTGA,0.211
20,CACTCCCC,-0.0586
21,CCATGGGG,-0.157
22,GGAATCTA,-0.146
23,CACTCTGG,-0.0839
24,AGCCAATA,-0.0864
25,CACCACCC,-0.124

row,Sequence,PBM E-score
1,CAACCGCA,0.0318
2,ATGATCTC,-0.0337
3,CGTACTTA,0.338
4,AACTTGGG,-0.165
5,GACCGCCA,-0.0136
6,CGTGAGTA,-0.0705
7,AAGCTCGC,0.2
8,ATACATCC,0.0355
9,CAATTTCC,-0.0487
10,GATGCAGC,-0.035
11,CAACTAGG,-0.207
12,AGCGCTGG,-0.204
13,AGGCCGAT,-0.153
14,AACTTCCA,-0.142
15,AATCCATT,-0.0406
16,CGGGAGCA,-0.0972
17,CACTTTGC,-0.063
18,GGTGCAGA,-0.299
19,ATGAACCC,-0.0888
20,TATGTCCA,0.0103
21,GCAGCAAC,-0.0138
22,AAGCTAAC,0.0658
23,ATATTGAG,-0.0874
24,CTCCCTGA,-0.274
25,CACCAAAG,0.0387

row,Sequence,PBM E-score
1,CTACCTGA,-0.149
2,CCGTCTTC,-0.263
3,AATTGCCT,0.00346
4,AGACCCAT,-0.186
5,ACGGAGAA,0.113
6,GATAGCTA,-0.185
7,CGACTGAC,0.137
8,GTACCAGA,0.179
9,CAAATATC,0.0216
10,CCCGTACA,0.398
11,ACGCTTCT,-0.0666
12,GAGCTGGA,-0.0714
13,GCCAACAC,0.0264
14,GTGCAGTA,-0.157
15,CAATCTTC,-0.00081
16,ATCTCGTG,0.124
17,ATTCCCCC,-0.428
18,TGGTTTAA,0.00261
19,CACGCCCC,-0.167
20,ATACGCAG,0.352
21,ATCACTCC,-0.0907
22,GTTTGCAA,0.17
23,AGGTTGTC,-0.191
24,CGACGCTC,0.292
25,ATATTTTC,0.0135

row,Sequence,PBM E-score
1,ACGCTGTC,0.078
2,AAGGCCTC,0.0301
3,ACTCAAGA,0.0377
4,CTGCACAC,-0.304
5,CTGGGCCC,-0.229
6,CTACGAGC,0.393
7,CCTAGTCG,0.0241
8,AGATAGCG,-0.151
9,AACGACCG,0.403
10,AGTAAATA,0.0984
11,ATCTCTGC,-0.143
12,ATGGCTTG,-0.0935
13,ATTTACTG,-0.109
14,AACCTGTG,-0.0467
15,AATTGGGA,-0.0326
16,TAACGCTA,0.144
17,AACAATGT,-0.0161
18,CGATTCGA,0.0594
19,CCGCGCAA,-0.199
20,AATGCCCC,-0.0337
21,ACACTAGT,0.0847
22,CCACCCGG,-0.0905
23,AACAAACT,0.0644
24,ACTCAAAG,0.0201
25,CAAACGAA,0.467

row,Sequence,PBM E-score
1,ATGAGGTC,-0.191
2,AGTGGTCA,-0.0559
3,CCGGATGA,-0.194
4,AAGCGTGA,-0.112
5,AGCAAGCC,-0.133
6,CCTCGACC,-0.142
7,CTCAGCGA,0.0521
8,CTTTAATA,0.00229
9,ACATGCAG,0.0224
10,CTACCGAG,-0.028
11,CTAGTGGC,-0.243
12,AACAGGTA,-0.0326
13,AATAGGCC,-0.0987
14,AGACAAAC,0.0723
15,CGTCGAAC,0.0511
16,AGAGCCAT,-0.0158
17,GCCAGTCC,-0.191
18,CTGCACTC,-0.0503
19,AGACCCCG,-0.121
20,CAGTTCCG,-0.0552
21,AAATTTGG,-0.174
22,ATAAGCGC,0.0548
